About 2,200 (0.71%) of roughly 310,000 compounds showed an effect of 50% or more. The effect is printed as a negative number. This is one part of the list.
Target: human ether-à-go-go-related gene (hERG) potassium channel (human, UniProt Q12809)
Assay: primary screen, population patch clamp on CHO cells stably expressing hERG

Chain of human ether-à-go-go-related gene (hERG) potassium channel (Q12809 whole entry, looked up): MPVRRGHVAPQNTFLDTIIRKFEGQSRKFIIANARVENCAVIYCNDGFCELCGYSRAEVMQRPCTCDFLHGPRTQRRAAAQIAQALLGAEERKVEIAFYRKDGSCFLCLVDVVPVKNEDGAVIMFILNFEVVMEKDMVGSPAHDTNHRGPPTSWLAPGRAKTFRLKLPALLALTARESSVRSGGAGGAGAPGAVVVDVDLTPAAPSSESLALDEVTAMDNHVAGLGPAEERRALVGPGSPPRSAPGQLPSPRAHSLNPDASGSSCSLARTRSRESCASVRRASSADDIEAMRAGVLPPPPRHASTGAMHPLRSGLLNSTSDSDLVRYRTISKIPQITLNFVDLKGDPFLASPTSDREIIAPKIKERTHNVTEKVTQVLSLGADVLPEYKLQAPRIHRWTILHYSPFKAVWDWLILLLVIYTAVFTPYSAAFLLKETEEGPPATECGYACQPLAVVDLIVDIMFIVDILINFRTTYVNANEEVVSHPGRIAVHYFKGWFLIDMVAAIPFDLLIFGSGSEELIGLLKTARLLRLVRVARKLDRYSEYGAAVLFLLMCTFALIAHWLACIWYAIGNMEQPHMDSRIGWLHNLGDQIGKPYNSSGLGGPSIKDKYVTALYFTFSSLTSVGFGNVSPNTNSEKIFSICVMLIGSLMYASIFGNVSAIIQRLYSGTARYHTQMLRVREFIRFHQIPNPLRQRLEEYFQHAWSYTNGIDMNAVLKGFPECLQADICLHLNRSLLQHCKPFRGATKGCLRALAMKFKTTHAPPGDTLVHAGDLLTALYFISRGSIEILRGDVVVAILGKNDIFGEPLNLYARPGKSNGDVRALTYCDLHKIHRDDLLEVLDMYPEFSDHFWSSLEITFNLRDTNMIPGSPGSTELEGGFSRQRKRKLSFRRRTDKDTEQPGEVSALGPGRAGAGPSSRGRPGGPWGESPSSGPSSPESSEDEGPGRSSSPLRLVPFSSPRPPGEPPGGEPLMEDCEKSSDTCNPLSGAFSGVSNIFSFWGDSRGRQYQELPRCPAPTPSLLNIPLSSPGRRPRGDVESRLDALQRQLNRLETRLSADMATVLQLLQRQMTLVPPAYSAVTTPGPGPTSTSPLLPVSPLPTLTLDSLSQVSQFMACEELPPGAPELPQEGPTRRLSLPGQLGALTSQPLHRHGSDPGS

SMILES | hERG current change (%, negative = inhibition) at 1uM [%]
Cc1nc(C)c(C(=O)Nc2cccc(C)c2C)o1 | 4.71
O=C(CCC(=O)c1cccs1)NNC(=O)c1ccccc1Cl | 7.93
CCOc1ccc(C(=O)CC(Sc2ccc(C)cc2)C(=O)O)cc1 (centres unmarked) | 9.44
COc1cc(OC)cc(-c2nnc(NC(=O)c3ccc4c(c3)OCCO4)o2)c1 | 5.57
Cc1cccc2cc(/C=N/NC(=O)CN3CCCCC3)c(Cl)nc12 | 7.4
Nc1cccc(NC(=O)CCC(=O)NCc2ccco2)c1 | 16
Br.CC1=CS(=O)(=O)CC1Sc1ncn[nH]1 (centres unmarked) | 3.31
CC(C)N(C(=O)NC(=O)Nc1ccccn1)S(C)(=O)=O | 7.36
Cc1ccc(C(=O)NCCNc2ccc(Cl)cc2[N+](=O)[O-])o1 | -11
O=S(=O)(c1ccccc1)N1CCN(C(=S)NCCCN2CCOCC2)CC1 | 17.7
O=C(CCCC(=O)N/N=C/c1ccccc1C(=O)O)N/N=C/c1ccccc1C(=O)O | 14.3
CS(=O)(=O)c1ccccc1C(=O)Nc1ccc2sccc2c1 | 12.4
COc1cccc(N2C(C(C)=O)=NN(c3ccccc3)C2c2ccc(N3CCOCC3)cc2)c1 (centres unmarked) | 10.6
COc1ccc(C2/C=C\CN(S(=O)(=O)c3ccc4ccccc4c3)CC(=O)N2Cc2ccc(F)cc2)cc1 (centres unmarked) | 9.7
COc1ccc2c(CC(=O)Nc3ncc(C)s3)coc2c1 | 8.3
CCOC(=O)C1CCCN(S(=O)(=O)c2cccc3cccnc23)C1 (centres unmarked) | 10.1
CN(CC(=O)N1CCOCC1)C(=O)CSc1nc2ccccc2s1 | 3.83
COc1ccc(N2CCN(S(=O)(=O)c3ccc(-c4cc(C)no4)s3)CC2)cc1 | 20.2
Cc1cc(N2CCOCC2)ccc1/C=C\[N+](=O)[O-] | 5.75
Cc1ccc(NS(=O)(=O)c2cc(C(=O)NCCSc3ccc(C)cc3)ccc2C)cc1 | 8.34
CN(C)c1ccc(CNc2ccccn2)cc1 | 14.4
Oc1ccccc1/C=N/n1cnnc1 | 15.6
CCn1nc(C(=O)NNC(=O)C2CSC3(C)CCC(=O)N23)c2ccccc2c1=O (centres unmarked) | 8.69

SMILES | hERG current change (%, negative = inhibition) at 1uM [%]
Cc1ccnc(NC(=O)CCC(=O)N(CC(=O)NCCc2ccccc2)c2ccc(F)cc2)c1 | 9.49
Cc1cccc(NC2=C(Cl)C(=O)OC2OC(C)C)c1 (centres unmarked) | 1.22
COc1ccc(/C=N/NC(=O)C(=O)/C=C2\NC3(CCCC3)Cc3ccccc32)cc1 | 8.09
O=[N+]([O-])c1ccccc1S(=O)(=O)N1CCCc2ccccc21 | 9.08
CSCC[C@H](NC(=O)NCc1ccccc1F)C(=O)O | 14.1
Cl.O=S(=O)(c1cccs1)N1CCN(C/C=C/c2ccccc2)CC1 | -6.27
O=S1(=O)c2ccccc2Nc2ccccc21 | 18.2
CCn1c(SCC(=O)N/N=C(/C)c2ccncc2)nc2ccccc21 | 8.73
CC(=O)OCCCNc1cc(SCc2ccco2)c2nonc2c1[N+](=O)[O-] | -4.86
CC(C)C[C@H]1CN=C(Nc2ccccc2)N1CCc1ccc(F)cc1 | -36.2
COc1cc(/C=C/C(=O)O)ccc1S(=O)(=O)N1CCCc2ccccc21 | 12.4
COc1ccc(-n2nc3c(c2NC(=O)CC(C)C)CS(=O)C3)cc1 (centres unmarked) | 15.1
CC1(C)c2ccccc2-c2nc3ccccc3cc2C1O (centres unmarked) | 3.87
Cc1ccc(OC(C)C(=O)Nc2ccc(S(=O)(=O)Nc3cc(C)on3)cc2)cc1 (centres unmarked) | -0.674
Cc1cc(OCC(=O)NNC(=O)c2cccnc2)cc(C)c1Cl | 8.86
Cc1ccc(/C=N/NC(=O)c2nnn(-c3nonc3N)c2C)o1 | 12.7
CC(C)(C)Nc1nc2cc([N+](=O)[O-])ccc2o1 | 26.5
NNC(=O)c1sccc1OCc1cccc(C(F)(F)F)c1 | 9.85
CCCCn1c(N)c(N(CCOC)C(=O)CSc2nc3ccc(C)cc3[nH]2)c(=O)[nH]c1=O | 6.55
Cc1nsc2nc3c(F)c(F)c(F)c(F)c3cc12 | 16.8
CCOC(=O)C1=C(c2ccccc2)N=c2s/c(=C\c3cc(OC)c(OC)c(OC)c3)c(=O)n2C1c1cccs1 (centres unmarked) | 7.89
O=C(CSc1nc(NS(=O)(=O)c2ccccc2)cc(=O)[nH]1)Nc1ccc(F)cc1 | 11
Cc1cccc(NC(=O)CC(C)(C)C)c1 | 9.02

SMILES | hERG current change (%, negative = inhibition) at 1uM [%]
O=C(Cn1cnc2c(cnn2-c2ccc(F)cc2)c1=O)N1CCCc2ccccc21 | -10.5
CC1(C(=O)N2CCC(CO)(Cc3cccc(C(F)(F)F)c3)CC2)CC1 | 8.78
CCCCOc1ccc(C(=O)N/C(=C\c2ccc(OC)cc2)C(=O)OCc2ccco2)cc1 | 6.49
CN(CCc1ccccn1)C(=O)c1cc(COc2ccc(F)cc2F)on1 | 7.55
CCN1C(=O)N(CC)C(=O)C2(Cc3ccccc3N3CCN(c4ccccc4)CC32)C1=O (centres unmarked) | 14.4
O=C1c2ccccc2NC(c2cnc3ccccc3n2)N1O (centres unmarked) | -0.0078
CCc1cccc(NC(=O)C2CCCN2S(=O)(=O)c2ccc3c(c2)CC(C)N3C(C)=O)c1 (centres unmarked) | -25.5
Cc1c(/C(O)=C2\C(=O)C(=O)N(CCN(C)C)C2c2cccs2)cnn1-c1ccccc1 (centres unmarked) | 1.49
O=C(Nc1sc2c(c1C(=O)O)CCC2)c1ccccc1 | 3.81
O=[N+]([O-])c1ccc(CN2CCC(Cc3ccccc3)CC2)cc1 | -9.62
COc1ccccc1Nc1ncnc2ccccc12 | -0.651
CCN(C(=O)Cn1c(=O)oc2ccccc21)c1ccc(C)c(C)c1 | 4.51
COc1ccccc1-c1sc2cc3c(cc2c1C#CC1(O)CCCCC1)OCO3 | 14.4
COCC(=O)N1CCC(Oc2ccc(C(=O)NC(C)c3csc(C)n3)cc2)CC1 (centres unmarked) | 15.2
Cn1c(=O)oc2cc(S(=O)(=O)N3CCCc4ccccc43)ccc21 | 3.12
O=C(NCc1nc2ccccc2[nH]1)c1cccc(S(=O)(=O)N2CCCC2)c1 | 12.4
CC1=CC(c2ccccc2)n2nnnc2N1 (centres unmarked) | 12.9
Cc1cc(Cl)c(S(=O)(=O)NC(C(=O)O)c2ccccc2)cc1OCC(N)=O (centres unmarked) | 6.08
CC(/C=N\NC(=O)CN1CCN(S(=O)(=O)c2ccc(C)cc2)CC1)=C\c1ccccc1 | 1.26
CC(C)OC(=O)Cn1nc(C(F)(F)F)c2c1CCCC2 | 17.4
COc1ccc(C)cc1NC(=O)CNc1ccccc1CN(C)C1CCCCC1 | 4.68
COc1ccc(-n2c(Cc3cccn3C)nnc2SCC(=O)Nc2ccc(C)cc2C)cc1 | -3.57
CC(=O)c1c(C)cc(C)c(CSc2ccccn2)c1C | 22.9

SMILES | hERG current change (%, negative = inhibition) at 1uM [%]
Cc1ccc(-c2nnc(N(C)C(=O)c3ccccn3)s2)cn1 | 12.5
Cc1ccc(NC(=O)CCC(=O)NNS(=O)(=O)c2ccc(Cl)cc2)cc1C | 3.88
Cl.Clc1cccc(CSC2=NCCCN2)c1 | 2.18
CN(C(=O)CSc1nc(-c2ccccc2)cs1)C1CCS(=O)(=O)C1 (centres unmarked) | -6.57
CCCNC(=O)C1CC(c2ccc(C(F)(F)F)cc2)=NO1 (centres unmarked) | -0.587
COc1ccccc1NC(=O)Cc1noc(CSc2nnc(N)s2)n1 | 13.6
Cc1ccc(N2CC(C(=O)Nc3cccc(F)c3)CC2=O)cc1 (centres unmarked) | 8.72
Fc1ccc(-c2nc3nc4ccccc4nc3n2Cc2ccco2)cc1 | -14.9
COc1ccccc1NC(=O)C(O)C(O)C(=O)Nc1ccccc1OC (centres unmarked) | 4.56
Cc1cccc(OCCSc2nc3ccccc3n2CC(=O)O)c1 | 10.1
COc1ccc(/C=N/NC(=O)CCn2cnc3ccccc32)cc1 | 12.8
CCCCC(=O)NNC(=S)NC(=O)c1cccc([N+](=O)[O-])c1 | 9.93
Cc1csc(NC(=O)CCS(=O)(=O)c2ccc(Br)cc2)n1 | 9.47
Cc1cccc(N2CC(O)=C(c3nc4ccccc4n3C)C2=N)c1 | -8.63
CCCCCc1cc(=O)oc2c(C(CCN3CCN(c4ccccc4)CC3)c3ccc4c(c3)OCO4)c(OC)cc(OC)c12 (centres unmarked) | 16.1
CCCCNC(=O)C1CCCN(S(=O)(=O)c2ccc(-n3cnnn3)cc2)C1 (centres unmarked) | -0.0403
O=C(c1ccc(F)cc1)n1c(NCc2ccccc2)n[nH]c1=S | 4.04
COC(=O)c1cc(Cl)c(NC(=O)Cc2ccccc2)cc1OC | 10.2
COc1cccc(NCc2cc(=O)oc3cc(-c4ccccc4)c(O)cc23)c1 | 12.6
Cc1ccc(CNc2ccc3c(c2)OCO3)cc1 | 5.08
